From PubChem BioAssay AID504832 (National Center for Advancing Translational Sciences (NCATS), 2011)
The whole screen tested about 310,000 compounds, of which about 18,000 (5.8%) were called active. The inconclusive results got no clear call from the source; some entries with a clear call stand among them for comparison. Calls come from the whole dose curve; as a rule, active = well fitted inhibition curve with a large enough effect; inconclusive = small, poorly fitted or top-dose-only effect, or another doubt; inactive = no such curve, though single readings can be large or run the other way. No potency is given beside an inconclusive call; the fits are too rough.

assay: Primary qHTS for delayed death inhibitors of the malarial parasite plastid, 48 hour incubation; conditions: P. falciparum luciferase growth in erythrocytes; series mostly up to 28.7 µM
Procedure, shortened: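 Growth was read as firefly luciferase luminescence after a 48 h, 37 C, 5% CO2 exposure of compounds to reporter-bearing P. falciparum cultures (0.1% parasitemia, 2% hematocrit final) in Albumax-supplemented RPMI 1640.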
Potency is the fitted concentration of half-maximal effect; tags give direction and shape of the fitted curve.

| Compound | Potency |
| --- | --- |
| CC1(C)CCc2cc(-c3ccnc(=S)[nH]3)ccc2O1 | inactive |
| CCCc1[nH]nc2c1C(c1ccc(OCCN3CCOCC3)c(OC)c1)C(C#N)=C(N)O2 (stereo not given) | inactive |
| CCOC(=O)c1cnc2nc(N3CCOCC3)nn2c1N | inactive |
| O=c1c2ccccc2c(/C=N/c2ncn[nH]2)c(O)n1Cc1ccccc1 | inactive |
| CCCn1nnnc1NCc1ccc(N(C)C)cc1 | inactive |
| O=C(NC1CCN(C(=S)NCc2ccco2)CC1)C12CC3CC(CC(C3)C1)C2 | inconclusive [inhibitor, partial curve, poor fit] |
| CCn1cc(C(=O)NCc2ccco2)c(=O)c2cc(S(=O)(=O)N3CCC(C)CC3)ccc21 | inconclusive [inhibitor, single point] |
| O=C(CSc1nc2ccccc2o1)N/N=C/c1ccc(O)c(O)c1 | inactive |
| CC1CC(C)CN(C(=O)c2cc(-c3ccncc3)nc3ccccc23)C1 (stereo not given) | active: 9.28 µM |
| CCC(C(=O)NCc1cccc(C)c1)n1nc(C)c2c(C)n(-c3ccccc3)nc2c1=O (stereo not given) | inconclusive [inhibitor, single point] |
| CCOC(=O)NN1C(=O)c2ccccc2NC1c1ccc(OC)c(OC)c1 (stereo not given) | inactive |
| COc1ccc(-c2csc(NC(=O)c3ccc(OCC(=O)N4CCOCC4)c(OC)c3)n2)cc1 | inactive |
| C=C[C@@H]1C[C@@]1(C)[C@@H](NP(=O)(c1ccccc1)c1ccccc1)c1ccccc1 | inconclusive [inhibitor, partial curve] |
| CCOC(=O)c1ccc2nc(NC(=O)c3ccco3)sc2c1 | inactive |
| CCCC1(C(=O)OC)NC(c2ccc(OC)c(OC)c2)C2C(=O)N(c3cccc(C(C)=O)c3)C(=O)C21 (stereo not given) | inconclusive [inhibitor, full curve, poor fit] |
| O=C(COc1ccccc1Cl)N1CCN(c2ccc([N+](=O)[O-])c(N3CCOCC3)c2)CC1 | inconclusive [inhibitor, single point] |
| CCN(C(=O)COC(=O)c1cccc(S(=O)(=O)N2CCOCC2)c1)C1CCS(=O)(=O)C1 (stereo not given) | inactive |
| Cn1c(Cc2cccc3ccccc23)nnc1SCC(=O)N1CCN(c2cccc(Cl)c2)CC1 | inconclusive [inhibitor, single point] |
| COC(=O)c1sccc1NC(=O)CSc1ccccc1NC(=O)CNC(C)C | inconclusive [inhibitor, single point] |
| CCc1noc(C)c1C(=O)N1CCC(CCC(=O)Nc2cccc(OC)c2)CC1 | inconclusive [inhibitor, partial curve] |
